In PubChem BioAssay AID540317 (National Center for Advancing Translational Sciences (NCATS), 2011):
Screen size: about 390,000 compounds; about 2,200 (0.56%) were called active. The shares of active, inactive and inconclusive entries below differ from those in the screen. Calls come from the whole dose curve; as a rule, active = well fitted inhibition curve with a large enough effect; inconclusive = small, poorly fitted or top-dose-only effect; inactive = no such curve, though single readings can be large or run the other way. A potency beside an inconclusive call is a rough fit, not a confirmed value.

Target: Chromobox protein homolog 1 (Homo sapiens) (UniProt P83916)
Assay: HTS for Inhibitors of HP1-beta Chromodomain Interactions with Methylated Histone Tails; note: nearly all actives have a fitted effect of over 70% in size
Settings: AlphaScreen HP1-beta / biotin-H3K9me3 peptide binding; series mostly up to 114 µM
Summary of the method: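 AlphaScreen: HP1-beta (50 nM) preformed 30 min with biotin-H3(1-18)K9me3 peptide (50 nM) in PBS pH 7.4, 0.01% Tween-20. Compound added for 30 min at RT, then streptavidin donor/nickel chelate acceptor beads (10 ug/mL) for 30 min.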
Potency is the fitted concentration of half-maximal effect; tags give direction and shape of the fitted curve.

Sequence of UniProt P83916 (P83916 whole entry, looked up): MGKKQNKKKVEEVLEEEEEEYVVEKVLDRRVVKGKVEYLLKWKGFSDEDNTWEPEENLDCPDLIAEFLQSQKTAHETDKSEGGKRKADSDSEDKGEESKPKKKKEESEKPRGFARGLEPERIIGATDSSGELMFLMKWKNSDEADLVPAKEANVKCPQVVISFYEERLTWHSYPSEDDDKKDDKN

Q: Which Potency does the source give for Cc1cc(C)c(S(=O)(=O)NCC(=O)NCc2ccco2)c(C)c1 here?
A: inconclusive: 79.4 µM [inhibitor, single point]

Q: Which Potency does the source give for COc1ccc(Nc2nc3nonc3nc2N2CCCCC2)cc1 here?
A: inconclusive: 79.4 µM [inhibitor, partial curve, poor fit]

Q: Cc1cccc(OCC(=O)NC(=S)N2CCCc3ccccc32)c1 was tested. Which Potency did it give?
A: inconclusive: 50.1 µM [inhibitor, partial curve]

Q: How did the Potency turn out when O=c1[nH]c2ccccc2c(O)c1O was run?
A: inconclusive: 50.1 µM [inhibitor, partial curve, poor fit]

Q: Which Potency does the source give for C=C(c1ccccc1)c1ccc(N(C)C)cc1 here?
A: inconclusive: 50.1 µM [inhibitor, partial curve]

Q: O=C(N/N=C\CCc1ccccc1)c1ccco1 was tested. Which Potency did it give?
A: inconclusive: 39.8 µM [inhibitor, single point]

Q: Which Potency does the source give for Cc1ccsc1/C=N/N1CCN(Cc2ccccc2)CC1 here?
A: inconclusive: 31.6 µM [inhibitor, full curve]

Q: CCN=c1scc(-c2cccs2)n1/N=C/c1cc(OC)ccc1O was tested. Which Potency did it give?
A: active: 14.1 µM

Q: N#Cc1cc2[nH]c(=O)c(=O)[nH]c2cc1[N+](=O)[O-] was tested. Which Potency did it give?
A: inactive

Q: Which Potency does the source give for Cc1nn2c(-n3ccnc3)c3c(nc2c1-c1ccccc1)CCC3 here?
A: inconclusive: 39.8 µM [inhibitor, single point]

Q: For Clc1cccc(CN2CCN(c3ncccn3)CC2)c1Cl, which Potency is on record?
A: inconclusive: 25.1 µM [inhibitor, single point]

Q: CCc1cc(C(=O)OC)c(NC(=O)CCC(=O)O)s1 was tested. Which Potency did it give?
A: inconclusive: 22.4 µM [inhibitor, partial curve]

Q: With CCOc1ccccc1N1CCN(C2=C(NS(=O)(=O)c3cccs3)C(=O)c3ccccc3C2=O)CC1 as the molecule, how does the Potency read?
A: inconclusive: 7.94 µM [inhibitor, full curve, poor fit]

Q: CN1CCN(C(=O)CN(C2CCCCC2)S(=O)(=O)c2ccccc2)CC1 was tested. Which Potency did it give?
A: inactive

Q: With CC(C)Oc1ccc(C(=O)NCC(c2ccc(N(C)C)cc2)N2CCc3ccccc32)cc1 (centres undefined) as the molecule, how does the Potency read?
A: inconclusive: 11.2 µM [inhibitor, full curve]

Q: With CNC(=S)N/N=C/c1cc(C)n(-c2ccc(Cl)c(Cl)c2)c1C as the molecule, how does the Potency read?
A: inconclusive: 10 µM [inhibitor, full curve, poor fit]

Q: For Cc1ccc2c(c1)cc1c(=O)n(Cc3ccccc3Cl)nc(C)n12, which Potency is on record?
A: inactive

Q: Which Potency does the source give for O=[N+]([O-])c1ccc(NNC(=S)Nc2ccc(F)cc2)cc1 here?
A: inconclusive: 22.4 µM [inhibitor, full curve, poor fit]

Q: With CC1CCCN(CCOCCSc2ccccc2)C1 (centres undefined) as the molecule, how does the Potency read?
A: inconclusive: 56.2 µM [inhibitor, partial curve, poor fit]
